Experimental data as given in the RNAGym collection of RNA variant scans (doi:10.1093/nar/gkz1192).
Read counts are not given, so values of variants with three or more changes are uncertain.

B1: CPEB3 Ribozyme (parent)
chain: UAACAGGGGGCCACAGCAGAAGCGUUCACGUCGCAGCCCCUGUCAGAUUCUGGUGAAUCUGCGAAUUCUGCUGUAUAUCUC

Variants of: B1
Experiment: self-cleavage, relative activity (ratio to wild type); higher = more cleavage; in vitro, sequencing
Outline: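 Libraries of CPEB3 self-cleaving ribozyme mutants came from rounds of error-prone PCR and carried barcodes, which DNA sequencing matched to variants. In vitro transcription used T7 RNA polymerase at 37°C for 5 hours, with a further 15 min in DNase I before EDTA stopped the reaction; the ribozymes cleaved during both steps. The RNA was reverse transcribed with template switching and sequenced on Illumina. Relative activity is the cleaved/total read fraction of a variant divided by that of the unmutated ribozyme, averaged over three batches with at least 5 reads.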

| Variant | self-cleavage |
| --- | --- |
| A13U U41C A57G U78A | 1.19 |
| C14G A15U U76C | 0.16 |
| A13U U49C U72C | 0.4 |
| C14U U41A A47G U78C U80C | 0.41 |
| C14A A15U A45G | 0.4 |
| A13U U43A A45G | 0.95 |
| A13U U60C U78A | 0.98 |
| C14U A35G U76C | 1.26 |
| A13U U43C A65G U78A | 0.12 |
| A13U U43A G53A C68A U80C | 0.35 |
| A13U U51C U54C U60C | 0.45 |
| A15C A21G C39G U78G | 0.08 |
| C14U G19A U26A A35G U41C | 0.22 |
| C14A A20C U54A U76C | 0.41 |
| A13U U60C U66C U74C | 0.27 |
| C14A U26C U80C | 0.94 |
| C14U U41C A45U U54A G61A A65G U78A | 0.23 |
| A13U U67C U78C | 0.34 |
| A13U U54C U60A U72C C79A | 0.8 |
| C14U U49C U72C | 0.37 |
| C14U U54C A64U U67A | 0.29 |

| Variant | self-cleavage |
| --- | --- |
| A13U U49C U51A U67C U76C | 0.3 |
| C14U U25A A35U C71A | 0.06 |
| A13U U41C U49A U69C | 0.39 |
| C14A U43A U49G | 0.78 |
| A13U U48C G61U U67C | 0.35 |
| C14A G33A U49G U69C A75G U78C | 0.06 |
| C14U A56U U80C | 1 |
| C14U A28G A47G U76A | 0.93 |
| C14G C23U C40U U49C A56G | 0.09 |
| C14A A21G A28G A35G U41C U58C | 0.26 |
| A13U U41C U54C U67A U72A U76A | 0.29 |
| A15C A20G C29U A45C C79U | 0.07 |
| C14U U26C U54A U69C | 0.1 |
| A13U U41C U54C U72A | 0.47 |
| C14U A35U U41C U69C | 0.26 |
| C14A A15G G46A U74C | 0.12 |
| C14U U26C U49A U51A U54C U60C | 0.08 |
| A13U U43A U49C U78C | 0.49 |
| C14U G24U U49A A65G | 0.12 |
| C14U U26C A35G A64G | 1.18 |
| A15C A20G U25C U54A A56C U69C | 0.04 |

| Variant | self-cleavage |
| --- | --- |
| A15C A18G A21G U60C U67A U76C | 0.02 |
| C14U A35U U58C U69C | 0.17 |
| A13U U51C C62U U69A U72C U76C | 0.42 |
| A13U U51C U66C | 0.39 |
| C14U A64G U76C | 0.74 |
| C14A U49C G70U U78C | 0.11 |
| A13U U51C U72A | 0.83 |
| C14U A56G A57G | 0.44 |
| A13U U48C U80C | 0.98 |
| C14U A20G A45G A47U U69A | 0.05 |
| A13U U43C U51A U72C | 0.72 |
| C14U U43A A56G | 1.12 |
| A13U U67A U69C | 0.25 |
| C14U U25C A35G A45U | 0.06 |
| C14U U41C A45U A57G | 0.53 |
| A13U U51C U67C U76A U80C | 0.62 |
| C14A A15U U25C U72C U80A | 0.28 |
| C14U A18G A57C C71U | 0.17 |
| A13U U54C U72G A75U | 1.17 |
| C14U A35U U51A | 0.77 |
| C14A A18U C62G | 0.19 |

| Variant | self-cleavage |
| --- | --- |
| A13U U67C U69C | 0.18 |
| A15C A21G A56G U66C | 0.8 |
| A13U U76C A77U | 1.12 |
| C14U A18G A57U | 0.22 |
| C14A A15G U25C U60C | 0.22 |
| C14U U41C U69C C71U | 0.4 |
| C14U U43C A56C A64G U66C | 0.15 |
| C14U C40U G70A U72G | 0.17 |
| C14U U25C U43A A57G | 0.14 |
| C14U A28U G63A U67C | 0.17 |
| A15C A20G A45G C71U | 0.38 |
| C14A U41C G70A U72C | 0.4 |
| A13U U69C G70A | 0.21 |
| C14G A15U U51G | 0.7 |
| C14U U26C G42U | 0.15 |
| C14U U54A A56G A57C U69A | 0.17 |
| A13U U48C A56G A64U | 0.18 |
| A13U U54A A56U U74C | 1.24 |
| A13U U60A A64U U76C | 0.31 |
| C14A A20G A35U U41A U54A U58C | 0.06 |
| C14U C38U U54C A64G | 0.84 |
